Reference: the RNAGym collection of RNA variant scans (doi:10.7554/elife.90254)
Read counts are not given, so values of variants with three or more changes are uncertain.

B1: OR4K15 (parent)
chain: GUUAACGGUCAUAGGCCAUGGAAACUAGGAGCACCAUUUCGCUGCCAGUGAAGAAAUGAACAAAGAAAAUCUGGGCCAGGCAGGCAUCAAAAGAAAUAGUCUUGCGCUCAACCAGAAAGUCUGUAAUCAUUUUAAGGGUA

Variants of: B1
Experiment: self-cleavage, relative activity (ratio to wild type); higher = more cleavage; in vitro, sequencing; the parent is a self-cleaving ribozyme

Row | Variant | self-cleavage
1 | GUUAACGGUAAUAGGCCGUGGAAACUAGGAGCACCAUUUCGCUGCCAGUGAAGAAAUGAACAAAGAAAAUCUGGGCCAGGCAAGCAUCAAAAGAAAUAGCCUUGCGCUCAACCAGAAAGUCUGUAAUCACUUUAAGGGCA [C10A A18G G83A U100C U130C U139C] | 1.07
2 | GUUAACGGGCAUAGGCCAUGGAAACUAGGAGCACCAUUUCGCUGCCAGUGAAGAAAUGAACAAAGAAAAUCUGGGCCAGGCAGGCAUCAAAAGAGAUAGUCUCGCGCUCAACCAGAAAGUCUGUAGUCAUUUUAAGGGUA [U9G A95G U103C A126G] | 0.18
3 | GUUAACGGGCAUAGGCCAUGGGAACUAGGAGCACCAUUUCGCUGCCAGUGAAGAAACGAACAAAGAAAAUCUGGGCCGGGCAGGCAUCUAAAGAGAUAGUCUUGCGCUCAACCAGAAAGUCUGUAAUCAUUUUAAGGGUA [U9G A22G U57C A78G A89U A95G] | 0.35
4 | GUUAACGGUAAUAGGCCAUGGAAACUAGGAGCACCAUUUCGCUGCCAGUGGAGAAAUGAACAAAGAAAAUCUGGGCCAGGCAGGUAUCAAAAGAAAUAGUCUUGCGCUCAACCAGAAAGUCUGUAAUCAUUUUAAGGGUA [C10A A51G C85U] | 0.94
5 | GUUAACGGGCAUAGGCCAUGGAGACUAGGAGCACCAUUUCGCUGCCAGUGAAGAAAUGAACAAAGAAAAUCUGGGCCAGGCAGGCAUCAUAAGAAAUAGUCUUGCGCUCAACCAGAAAGUCUGUAAUCAUUUUAAGGGUA [U9G A23G A90U] | 0.37
6 | GUUAACGGGCAUAGGCCAUGGAAACUAGGAGCACCAUUUCGCUGCCAGUGAAGAAAUGAACAGAGGAAAUCUGGGCCAGGCAGGCAUCAAAAGAAAUUGUCUUGCGCUCAACCGGAAAGUCUGUAAUCAUUUUAAGGGUA [U9G A63G A66G A98U A114G] | 1.14
7 | GUUAACGGUAAUAGGCCAUGGAAACUAGGAGCACCACUUCGCUGCCAGUGAAGAAAUGAACAAAGAAAAUCUGGGCCAGGCAGGCAUCAAAAGAAAUAGUCUUGCGCUCAACCAGAAAGUCUGUAAUCAUUUUAAGGGCA [C10A U37C U139C] | 0.8
8 | GUUAACGGGCAUAGGCCAUGGAAACUAGGAGCACCAUUUCGCUGCCAGUGAAGAAACGAACAAAGAAAAUCUGGGCCAGGCAGGCAUCAAAAGAAAUAGUCUUGUGCUCAACCAGAGAGUCUGUAAUCAUUUUAAGGGUA [U9G U57C C105U A117G] | 0.03
9 | GUUAACGGGCAUAGGCCAUGGAGACUAGGAGCACCAUUUCGCUGCCAGUGAAGAAAUGAACAAAGAAAAUCUGGGCCAGGCAGGCAUCAAAAGAAAUAGUCUUGCGCCCAACCAGAAAGUCUGUAAUCGUUUUAAGGGUA [U9G A23G U108C A129G] | 0.01
10 | GUUAACGGUAAUAGGCCAUGGAAACUAGGAGCACCAUUUCGCUGCCGGUGAAGAAAUGAACAAAGAAAAUCUGGGCCAGGCAGGCAUCAAAAGAAAUAGUCUUGCGCUCAACCAGAAAGUCUAUAAUCAUUUUAAGGGUA [C10A A47G G123A] | 0.62
11 | GUUAACGGUAAUGGGCCAUGGAACCUAGGAGCACCAUUUCGCUGCCAGUGAAGAAAUGAACAAAGAAAAUCCGGGCCAGGCAGGCAUCAAAAGAAAUAGUCUUGCGCUCAACCAGAAAGUCUGUAGUCAUUUUAAGGGUA [C10A A13G A24C U72C A126G] | 0.17
12 | GUUAACGGGCAUAGGCCAUGGAAACUAGGAGCACCAUUUCGCUGCCAGUGAAGGAAUGAACAAAGAAAAUCUGGGCCAGGCAGGCAUCAGAAGAAAUAGCCUUGUGCUCAACCAGAAAGUCUGUAGUCAUUUUAAGGGUA [U9G A54G A90G U100C C105U A126G] | 0.07
13 | GUUAACGGGCAUAGGGCAUGGAAACUAGGAGCACCAUUUCGCUGCCAGUGAAGAAAUGAACAAAGAAAAUCUGGGCCAGGCAGGCGUCAAAAGAAAAAGUCUUGCGCUCAACCGGAAAGUCUGUAAUCAUUCUAAGGGUA [U9G C16G A86G U97A A114G U132C] | 0.51
14 | GUUAACGGGCAUAGGCCAUGGAAACUAGGAGCACCAUUUCGCUGCCAGUGAAGAAAUGAACAAAGAAAAUCUGGGCCAGGCAGGCAUCAAAAGAAAUAGUCUUGCGCUCAACCAGAAAGUCUGUGAUCAUUAUAAGGGUA [U9G A125G U132A] | 0.39
15 | GUUAACGGUAAUAGGCCUUGGGAACUAGGAGCACCACUUCGCUGCCAGUGAAGAAAUGAACAAGGAAAAUCUGGGCCAGGGAGGCAUCAAAAGAAAUAGUCUUGCGCUCAACCAGAAAGUCUGUAAUCAUUUUAAGGGUA [C10A A18U A22G U37C A64G C81G] | 0.12
16 | GUUAACGGGCAUAGGCCAAGGAAACUAGGAGCACCAUUUCGCUGCCAGUGAAGAAAUGAACAAAGAGAUUCUGGGCCAGGCAGGCAUCAAAAGAAAUAGUCUUGCGCUCAACCAGAAAGUCUGUAAUCAUUUUAAGGGUA [U9G U19A A67G A69U] | 1.23
17 | GUUAACGGGCAUAGGCCAUGGAAACUAGGAGCACCACUUCGCUGCCAGUGAAGAAAUGAACAAAGAAAAUCUGGACCAGGCAGGCAUCAAAAGAAAUAGUCUUGCGCUCAACCAGAAAGUCUGUAAUCAUUUUAAGGGUA [U9G U37C G75A] | 0.16
18 | GUUAACGGUAAUAGGCCAUGGAAACUAGGAGCACCAUUUCGCUGCCAGUGAAGAAAUGAACAAAGAAAAUCUGGGCUUGGCAGGCAUCAAAAGAAAUAGUCUUGCGCUCAACCAGAAAGUCUGUAAUCAUCUUAAGGGUA [C10A C77U A78U U131C] | 1.06
19 | GUUAACGGUAAUAGGCCAUGGAAACUAGGAGCACCAUUUCGCUGCCAGUGAGGAAAUGAACGAAGAAAAUCUGGGCCAGGCAGGCAUCAAAAGGAAUGGUCUUGCGCUCAACCAGAAAGUCUGUAACCAUUUUAAGGGUA [C10A A52G A62G A94G A98G U127C] | 0.88
20 | GUUAACGGUAGUAGGCCAUGGAAACUAGGAGCACCAUUUCGCUGCCAGUGAAGAAAUGAACAAAGAAAAUCUGGGCCAAGCAGGCAUCAAAAGAAAUAGUCUUGUGCUCAACCAGAAAGUCUGUAAACAUUUUAAGGGUA [C10A A11G G79A C105U U127A] | 0.03
21 | GUUAACGGGCAUAGGCCAUGGAAACUAGGAGCACCAUUUCGCUGCCAGAGAAGAAAUGAACAAAGAAAAUCUGGGCCAGGCAGGCAUCAAAAGAAAUAGUCUUGCGCCCAACCAGAAAGUCUGUAGUCAUUUUAAGGGUA [U9G U49A U108C A126G] | 0
